# Experimental data: PubChem BioAssay AID1508623 (National Center for Advancing Translational Sciences (NCATS), 2021)
# Among all 48,000 compounds or so, about 450 (0.94%) were called active. Not shown: some 19% with an inconclusive outcome. Calls follow the shape of the dose curve; as a rule, active = well fitted inhibition curve with a large enough effect; inconclusive = small, poorly fitted or top-dose-only effect; inactive = no such curve, though single readings can be large or run the other way. The list shows a part of the results.
# Assay: Primary qHTS for Identification of Small Molecule Inhibitors of Huntingtin Promoter Activity; also: nearly all actives have a fitted effect of over 50% in size
# Conditions: HEK293 HTT promoter firefly luciferase reporter (activity 0% = vehicle and -100% = no light), 24 h; series mostly up to 57.5 µM; activity change, negative = inhibition: at the top concentration
# Outline: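 HEK293 cells carrying firefly luciferase reporters were seeded at 2,500 per well in Opti-MEM and cultured for 24 h. They were then treated with compounds at up to 57.5 uM final for 24 h at 37 degrees C before Dual-Glo luminescence readout.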
row,Structure (SMILES),"activity change, negative = inhibition"
1,Cc1ccc(NC(=O)C2(C)Cc3ccccc3C(=O)O2)c(C)c1 (configuration not stated),inactive: -6.71%
2,Cc1cc(OCC(=O)NCCc2nc3ccccc3[nH]2)cc(C)c1Cl,inactive: -8.88%
3,Cc1cccc(C(=O)N2CCc3cc(CNC(=O)c4cc5ccccc5[nH]4)ccc32)c1,inactive: -14.8%
4,CCn1nc(C)c(CCN(C)C(=O)Nc2cccc(Cl)c2C)c1C,inactive: -18.8%
5,Cc1ccc(CNC(=O)C(C)n2c(=O)cc(C(F)(F)F)c3c(C)nn(C)c32)cc1 (configuration not stated),inactive: 0%
6,Cc1ccc(S(=O)(=O)C(CNC(=O)c2c(F)cccc2F)c2ccco2)cc1 (configuration not stated),inactive: -13.4%
7,O=S(=O)(c1ccccc1)c1nc(-c2ccccc2Cl)oc1N1CCCCCC1,inactive: -28.1%
8,CCS(=O)(=O)N1CCc2cc(C(=O)NCc3ccccc3OC)ccc21,inactive: -6.17%
9,CCn1cc(CNC(=O)c2cc(-c3ccc(C)cc3)nc3ccc(Br)cc23)c(C)n1,inactive: 5.87%
10,COc1cccc(NC(=O)C2CCC(CNS(=O)(=O)c3ccc4c(c3)CCCC(=O)N4)CC2)c1 (configuration not stated),inactive: -3.83%
11,Cc1ccccc1-c1nc2scc(CCNC(=O)c3ccco3)n2n1,inactive: 0%
12,COc1ccc(NC(=O)CN2C(=O)COc3ccc(S(=O)(=O)N4CCOCC4)cc32)cc1,inactive: -7.27%
13,O=C(NCc1ccccc1)C(=O)Nc1c2c(nn1-c1ccc(F)cc1)CSC2,inactive: -23.2%
14,COc1cccc(NC(=O)C2CCN(c3ccc(Sc4ccc(C)cc4)nn3)CC2)c1,inactive: -12.6%
15,Clc1ccccc1OCCSc1nnc(-c2cccs2)o1,inactive: -19.5% [at 11.5 µM]
16,O=C(CSc1nc(=O)n(Cc2ccco2)c2c1CCC2)NCc1ccccc1,inactive: -0.0501%
17,CCc1ccc2oc(-c3ccc(C)c(NC(=O)/C=C/c4ccco4)c3)nc2c1,inactive: 19.2%
18,Cc1sc2ncn(CC(=O)N3CCN(c4ccccc4F)CC3)c(=O)c2c1S(=O)(=O)N1CCC(C)CC1,inactive: -8.86%
19,Cc1cccc(OCCSc2nnc(-c3cccs3)o2)c1,inactive: -23.1% [at 11.5 µM]
20,Cc1ccc2nc(/C(C#N)=C/c3ccccc3F)[nH]c2c1,inactive: 48.1%
21,O=C(NC1CCCC1)c1ccc2c(=O)n(Cc3ccccc3)c(SCc3ccccc3F)nc2c1,inactive: 0.406%
22,COc1ccccc1CNC(=O)C1CCN(c2nc3ccc(C)cc3[nH]2)CC1,inactive: 3.81%
23,CCOc1ccc(CCNC(=O)c2cc3c(-c4ccccc4F)nn(C)c3s2)cc1,inactive: -24.6%
24,COc1ccc(-c2cc(-c3ccc(C)cc3)nc3c2COc2ccccc2-3)cc1,inactive: -7.21%

row,Structure (SMILES),"activity change, negative = inhibition"
1,CCC(Cn1nnc2ccccc2c1=O)NC(=O)Nc1ccccc1OC (configuration not stated),inactive: -12.2%
2,Cc1ccc(S(=O)(=O)c2nc(-c3ccc(F)cc3)oc2SCC(=O)NC2CCCCC2)cc1,inactive: -15.6%
3,C[C@]12CCC(=O)C=C1CC[C@@H]1[C@H]2[C@@H](O)C[C@@]2(C)[C@H]1CC[C@]2(O)C(=O)CO,inactive: -17.5%
4,COc1ccc(CCNC(=O)c2ccc3c(c2)CCN3S(C)(=O)=O)cc1OC,inactive: -6.55%
5,COc1ccc(Cn2cc(S(=O)(=O)c3ccc(C)cc3)c(=O)c3cc(F)ccc32)cc1,inactive: -19.4%
6,COc1ccc2c(c1)c(=O)c(C(=O)c1ccccc1)cn2CC(=O)Nc1ccc2c(c1)OCO2,inactive: -17.2%
7,CCOc1ccc(NC(=O)c2oc3ccccc3c2NC(=O)COc2cccc(OC)c2)cc1,inactive: -6.28%
8,NS(=O)(=O)c1ccc(CCNC(=O)C2CCN(c3ncnc4c3nc3n4CCCCC3)CC2)cc1,inactive: -1.02%
9,Cc1ccc(CNC(=O)CCc2cn(C)c3ccccc23)cc1,inactive: -6.39%
10,CCC(CC)C(=O)Nc1nnc(S(=O)(=O)N2CCCCCC2)s1,inactive: -14.7%
11,Cc1cn2c(=O)cc(COC(=O)c3ccc(NC(=O)c4ccc(F)cc4)cc3)nc2s1,inactive: -29.3%
12,CCOC(=O)c1ccc(NC(=O)c2cnn3c(=O)c4c(n(CC)c23)CCN(Cc2ccc(OC)cc2)C4)cc1,inactive: -21.2%
13,COC(=O)c1ccc(Nc2ncnc3c2cnn3C)cc1,inactive: -4.83%
14,COc1ccc(C2c3[nH]c4ccccc4c3CCN2C(=O)CCC2CCCC2)cc1 (configuration not stated),inactive: -27.7%
15,COc1ccc(CNC(=O)Cc2c(C)c3cc4c(C)coc4cc3oc2=O)cc1OC,inactive: -1.65%
16,CC(Sc1nccn1C)C(=O)Nc1ccccc1C#N (configuration not stated),inactive: -11.6%
17,CCN(CC)c1ccc(NC(=O)c2cc(C)nc3c2c(C)nn3-c2ccc(C)cc2)c(C)c1,inactive: -5.22%
18,COc1ccc(-c2nc3scc(CCNS(=O)(=O)c4ccc(Oc5ccccc5)cc4)n3n2)cc1OC,inactive: -23.9%
19,CCN(CC)C(=O)c1sc2c(c1C)c(=O)n(-c1ccc(C)c(C)c1)c(=O)n2Cc1cc(=O)n2ccccc2n1,inactive: -4.57%
20,Cc1ccc2sc(N(Cc3cccnc3)C(=O)CCS(=O)(=O)c3ccccc3)nc2c1C,inactive: -11.1%
21,O=C(CNC(=O)c1ccccc1)OCc1cc(=O)n2nc(C3CCCCC3)sc2n1,inactive: -4.31%
22,CCN(CC)C(=O)c1sc2c(c1C)c(=O)n(Cc1ccccc1)c(=O)n2Cc1ccccc1C,inactive: -9.75%
23,Clc1ccc(CN2CCN(c3ncnc4sc5c(c34)CCCC5)CC2)cc1Cl,inactive: -16%
